Values quoted from earlier work as cited in patent US5409948A (priority 1992, dated 1995).

Details: Brufani et al. 1987; cited from earlier work

CCCCCCCNC(=O)Oc1ccc2c(c1)[C@]1(C)CCN(C)[C@@H]1N2C [heptyl-Phy]
lipophilicity vs parent compound: greater lipophilicity
